Data: PubChem BioAssay (NCI)
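Protocol summary: plate cells (96-well), add compound at 5 concentrations, incubate 48 h, interpolate endpoints linearly. Abbreviation: GI50, concentration required for 50% inhibition of growth. At the TGI there is no net growth.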 Square brackets hold non-standard residues; d marks the D form. Peptide text beside a SMILES is read from it. * marks the point of attachment. Octanoyl = CCCCCCCC(=O)*; Aib = CC(C)(N)C(=O)O; tBu = CC(C)(C)*

What follows are molecules tested on NCI-H322M lung (assay: NCI-60 cell line screen, 48 h).

Row | Structure (SMILES) | TGI | GI50
1 | CC1C=CC(=O)C(n2cc(F)c(=O)[nH]c2=O)O1 (centres undefined) | 35 µM | 
2 | COC1=CC(c2ccc[nH]2)=N/C1=C\c1ccc[nH]1 | 19 µM | 0.722 µM
3 | CCCCCCCCCCCCCCCCOCC(COP(=O)([O-])OCC[N+](C)(C)C)OCCCCCCCCCCCCCCCC (centres undefined) | > 100 µM | 
4 | O=C(OCC1OC(c2nn[nH]n2)C(OC(=O)c2ccccc2)C1OC(=O)c1ccccc1)c1ccccc1 (centres undefined) | > 100 µM | 
5 | COc1ccc2nc3ccccc3c(NCCCCCCN(C)CCCl)c2c1 | 4.33 µM | 
6 | C[C@H]1[C@H](C)CC[C@]2(C(=O)O)CC[C@]3(C)C(=CC[C@@H]4[C@@]5(C)C/C(=C/c6ccco6)C(=O)C(C)(C)[C@@H]5CC[C@]43C)[C@H]12 | 16 µM | 3.24 µM
7 | COc1ccc2[nH]c3c(c2c1)COc1ccccc1C3=O | > 100 µM | 
8 | O=c1cnn2c(n1)sc1ccc3ccccc3c12 | > 100 µM | 
9 | CCOP(=O)(OCC)/C(C#N)=C/c1cccn1CC(C)C | > 100 µM | 
10 | CCOC(=O)CCC(NC(=O)c1ccc(Nc2nc3ccccc3nc2-c2cccs2)cc1)C(=O)OCC (centres undefined) | > 100 µM | 
11 | O=c1oc2ccc3ccccc3c2cc1-c1nc2ccccc2o1 | > 55.2 µM | 
12 | CC(C)NC(=O)OCc1c(COC(=O)NC(C)C)n(C)c2c1ccc1ccccc12 | 15.6 µM | 
13 | CSc1nc2sc3cc(Cl)ccc3n2c(=N)c1C#N | > 100 µM | > 90.9 µM
14 | COC(=O)C1=C(C(=O)OC)C23C=C(C)C1C2=C(C)C1(CC1)[C@@](C)(O)C3=O (some centres undefined) | 3.11 µM | 0.332 µM
15 | CCN(CC)C(=O)COc1ccc(Br)cc1Br | > 100 µM | 
16 | COC(=O)[C@]1(C)CCC[C@@]2(C)C1CCC1=CC3(C(C)C)CCC12OO3 (some centres undefined) | > 100 µM | 
17 | COc1ccc(/C=C/c2n[nH]c3ccc(N4CCOC4=O)cc23)cc1 | 10.9 µM | 2.72 µM
18 | Oc1ccc(Cn2c(-c3ccc(O)c(O)c3)nc3ccccc32)cc1O | 58.6 µM | 
19 | COc1ccc(O)c(C=NCCCN=Cc2cc(OC)ccc2O)c1 | 62.4 µM | 
20 | FC(F)(Sc1ccccc1)c1nc2ccccc2o1 | > 100 µM | 
21 | N/N=C1\CCCc2c1no[n+]2[O-] | > 100 µM | 
22 | Cc1ccc(S(=O)(=O)OC2C(C3COC(C)(C)O3)OC3OC(C)(C)OC32)cc1 (centres undefined) | > 100 µM | 
23 | COc1ccccc1Cn1nc(OC)c2cc([N+](=O)[O-])ccc21 | > 100 µM | 
24 | c1ccc2c(c1)Nc1nc3nonc3nc1N2 | > 100 µM | 
25 | COc1ccc(/C=C2\CCC(C)(CN(C)C)C2=O)cc1 (centres undefined) | > 100 µM | 

Row | Structure (SMILES) | TGI | GI50
26 | Cc1cc(C)c2c(=O)n(CN3CCC(O)(c4ccccc4)CC3)sc2n1 | > 100 µM | 
27 | C1=Cc2nc1c(-c1ccncc1)c1ccc([n-]1)c(-c1ccncc1)c1nc(c(-c3ccncc3)c3ccc([n-]3)c2-c2ccncc2)C=C1.[Zn+2] | > 100 µM | 
28 | CCOC(=O)C1=c2[nH]c3cccc4cccc(c43)n2C=C(C(C)=O)C1CC(C)=O (centres undefined) | > 100 µM | 
29 | CC(=O)O[C@H]1C(=O)[C@@]2(C)C(C(OC(=O)c3ccccc3)[C@]3(O)CC(OC(=O)C(O)C(NC(=O)c4ccc(C)cc4)c4ccccc4)C(C)=C1C3(C)C)[C@]1(OC(C)=O)CO[C@@H]1C[C@@H]2O (some centres undefined) | 10.9 µM | 
30 | O=C1CCC2(CC1)SCCCS2 | > 100 µM | 
31 | COc1ccc(-c2nc(-c3nc4ccc(OC)cc4[nH]3)cc3c2[nH]c2ccccc23)cc1 | > 100 µM | 3.85 µM
32 | OCC12C3C4C1C1C2C3C41CO (centres undefined) | > 100 µM | 
33 | COc1cc([C@@H]2c3[nH]c4ccccc4c3C(Nc3ccc([N+](=O)[O-])cc3)[C@H]3COC(=O)N23)cc(OC)c1O (some centres undefined) | > 31.7 µM | 
34 | CCO[C@]12C[C@H](OC)[C@@]3(O)CC(C1[C@H]3O)C13C4C2[C@H](OC)C1[C@](COC)(CN4CC)[C@H](O)C[C@@H]3OC (some centres undefined) | > 100 µM | 
35 | O=[N+]([O-])c1cc(-[n+]2cc([O-])on2)ccc1F | 30.9 µM | 
36 | COc1ccc2oc(C(=O)N3CC(CCl)c4ccc([N+](=O)[O-])cc43)cc2c1 (centres undefined) | > 100 µM | 
37 | Cc1ccc(C)c(NC(=O)CC/C(=N\NC(=O)C(N)=O)C(C)C(=O)c2ccc(O)cc2)c1 (centres undefined) | > 100 µM | 
38 | O=C(Nc1nc2ncn(CC(COc3ccccc3)OC(=O)c3ccccc3)c2c(=O)[nH]1)c1ccccc1 (centres undefined) | > 100 µM | 
39 | CCCCn1c2c(n(CCCC)c1=S)-c1c(n(CCCC)c(=S)n1CCCC)SSSS2 | > 100 µM | 
40 | COc1cc(/C=C2\COc3ccc(O)c(O)c3C2=O)cc(OC)c1 | 11.9 µM | 2.65 µM
41 | O=C(NO)C12C3C4C1C1C2C3C41C(=O)NO (centres undefined) | > 100 µM | 
42 | COc1cc2c(c3c1c(=O)c1ccccc1n3C)C=CC1(CCCCC1)O2 | > 10 µM | 
43 | Clc1c(Cl)c2c(Cl)c(Cl)c1C[P+](c1ccccc1)(c1ccccc1)CC[P+](c1ccccc1)(c1ccccc1)Cc1c(Cl)c(Cl)c(c(Cl)c1Cl)C[P+](c1ccccc1)(c1ccccc1)CC[P+](c1ccccc1)(c1ccccc1)C2 | 13.9 µM | 
44 | COC(=O)C1=C(CO)C2C=CC1C2 (centres undefined) | > 100 µM | 
45 | CCn1cnc2c(Nc3cccc(Cl)c3)nc(N[C@@H]3CCCC[C@@H]3N)nc21 | 7.78 µM | 1.65 µM
46 | ClC1=C(Cc2ccccc2)Cc2ccc3c(c21)CCC3 | > 100 µM | 
47 | NCCC(O)(P(=O)(O)O)P(=O)(O)O | > 100 µM | > 100 µM
48 | Cc1nc(NC(=O)CCCN2C(=O)c3cccc4cccc(c34)C2=O)sc1C(=O)Nc1cc(C(=O)NCCCN(C)C)n(C)c1 | > 100 µM | > 100 µM
49 | c1ccc(/N=N/Nc2ccc(-c3nc4ccccc4[nH]3)cc2)nc1 | 48.9 µM | 
50 | COc1cc(-c2cc(-c3nc4ccc(Cl)cc4[nH]3)[nH]n2)cc(OC)c1OC | 14.7 µM | 3.65 µM

Row | Structure (SMILES) | TGI | GI50
51 | O=C1OC(O)C(Oc2ccc(Cl)cc2)=C1Cl (centres undefined) | > 100 µM | 
52 | O=[N+]([O-])c1nccn1COCCF | > 100 µM | 
53 | N.N.NCCCCN.O=C([O-])C1(C(=O)[O-])CCC1.O=C([O-])C1(C(=O)[O-])CCC1.[Pt+4].[Pt+4] | > 100 µM | > 100 µM
54 | CCOC(=O)c1sc(=S)c2c(C(=O)OCC)c(C(=O)OCC)sc2c1C(=O)OCC | 41.6 µM | 16.6 µM
55 | COc1cc(C(=O)c2cc3c(cc2C)OCO3)cc(OC)c1OC | > 100 µM | 0.794 µM
56 | CCCCCCCC[N+](C)(CCCCCCCC)CCCCCCCC | 3.06 µM | 1.63 µM
57 | Cc1ccccc1CN1CC=c2ccccc2=N1 | > 100 µM | 
58 | CC1=C(C(=O)Nc2ccc(Cl)c(Cl)c2)C(c2ccco2)C(C(=O)Nc2ccc(Cl)c(Cl)c2)=C(C)N1 | 27 µM | 
59 | CC#C[I+]c1ccccc1 | > 100 µM | 
60 | O=C(NCCO)Nc1c(C(F)(F)F)cc(-c2ccccc2)[nH]c1=O | > 100 µM | 
61 | COC(=O)C(Cl)=C1CC1 | > 100 µM | 
62 | CC(C)=CC(=O)Cc1nc2cc(C)c(C)cc2[nH]c1=O | > 100 µM | 
63 | c1cncc(-c2ncc3cccnc3n2)c1 | > 100 µM | 
64 | CCCCCCCCCCCCCCCCCCOCC(CO[P+](=O)O)OCCCCCCCCCCCCCCCCCC (centres undefined) | > 50 µM | 
65 | OC1CN2CCS[C@H]2C(O)C1O (some centres undefined) | > 100 µM | 
66 | CCOP(=O)(C=C=C(C)C)OCC | > 100 µM | 
67 | COc1nc2sc3c(c2c(=O)n1CCCSSCCCn1c(OC)nc2sc4c(c2c1=O)CCCC4)CCCC3 | > 100 µM | 
68 | Cc1c2c(n(Cc3ccccn3)c1C)NN=C(C#N)S2(=O)=O | > 100 µM | 
69 | CC(=O)Oc1cc2c(cc1OC(C)=O)[C@H]1CC[C@]3(C)[C@@H](OC(C)=O)CC[C@H]3[C@@H]1CC2 | 23.2 µM | 
70 | O=c1[nH]nc(Cc2ccc(Cl)cc2)n1/N=C\c1ccc(/C=N/n2c(Cc3ccc(Cl)cc3)n[nH]c2=O)cc1 | > 100 µM | 
71 | COc1ccc(-c2ccc(C3CC(c4ccc(Cl)cc4)=NN3)o2)c([N+](=O)[O-])c1 (centres undefined) | > 100 µM | > 100 µM
72 | Nc1c(C(=O)Nc2ccccc2Cl)sc2nc3c(cc12)CCCCCC3 | > 100 µM | 12.5 µM
73 | CCOC(=O)NC(NC(C)CC)(C(F)(F)F)C(F)(F)F (centres undefined) | > 100 µM | 
74 | COc1cccc(N2C(=O)CSC2c2cc(OC)c(OC)c(OC)c2)c1 (centres undefined) | > 100 µM | 
75 | COc1ccc(/C=C/C(=O)N[C@@H]2C(=O)N3[C@@H]2SC(C)(C)[C@@H]3C(=O)O)cc1 | > 100 µM | 

Row | Structure (SMILES) | TGI | GI50
76 | C=C1c2nc3ccccc3n2C=C(c2ccccc2)N1c1ccccc1 | > 100 µM | 
77 | Cc1[nH]c(=O)[nH]c(=O)c1CO | > 100 µM | > 100 µM
78 | O=S(CCCl)c1c2ccccc2nc2ccccc12 (centres undefined) | > 100 µM | 
79 | NC(=S)N/N=C1/C(=O)N(c2ccc(Cl)cc2Cl)C(=O)C(=O)C1c1nc2ccccc2s1 (centres undefined) | > 100 µM | 
80 | CC(C)NCC(O)c1ccc(OCc2ccccc2)c(OCc2ccccc2)c1-c1ccccc1 (centres undefined) | 3.01 µM | 
81 | CCOC(=O)CCC(NC(=O)Cc1ccc(Oc2nc3ccccc3nc2-c2cccs2)cc1)C(=O)OCC (centres undefined) | > 100 µM | 
82 | c1ccc(CN(Cn2cccn2)Cn2cccn2)nc1 | > 100 µM | 
83 | Cc1ccc(Cl)c(NC(=O)C(=O)C(C(=O)c2ccncc2)C2OC(=O)c3ccccc32)c1 (centres undefined) | > 100 µM | 
84 | COC(=O)CCn1cnc2c(SC)ncnc21 | > 100 µM | 
85 | Cc1ccc(C)c(-c2csc(Nc3ccc(C)c(C)c3)n2)c1 | > 100 µM | > 100 µM
86 | CCCCCCCC(=O)NC(C)(C)C(=O)NC(COC(C)(C)C)C(=O)NC(CC(C)C)C(=O)NC(C)(C)C(=O)NC(COC(C)(C)C)C(=O)NC(COC(C)(C)C)C(=O)NC(CC(C)C)C(=O)NC(C)(C)C(=O)NC(COC(C)(C)C)C(=O)NC(C(=O)NC(CC(C)C)C(=O)OC)C(C)CC (centres undefined) (Octanoyl-[Aib]S(tBu)L[Aib]S(tBu)S(tBu)L[Aib]S(tBu)IL-OMe; configuration not given here) | > 25 µM | 
87 | N#Cc1ccnc(N2C(=O)CC[C@H]2C(=O)N(c2cncc(F)c2)[C@H](C(=O)NC2CC(F)(F)C2)c2ccccc2Cl)c1 | > 100 µM | 84.4 µM
88 | CCOC(=O)c1[nH]c2ccccc2c1C(=O)C[C@H](NC(=O)C(F)(F)F)C(=O)OC | > 100 µM | 
89 | N/N=C1/CCCc2nonc21 | > 100 µM | 
90 | O=C1C=C(NCCc2cc(Br)c(O)c(Br)c2)C(=O)c2ncccc21 | 5.54 µM | 
91 | COC(=O)C1(Cc2ccccc2)Cc2ccc3c(c2C1=O)CCC3 (centres undefined) | > 100 µM | 
92 | N#Cc1cc([N+](=O)[O-])ccc1NC(=O)C(=O)C(C(=O)/C=C/c1ccccc1)C1OC(=O)c2ccccc21 (centres undefined) | > 100 µM | 
93 | N#CC(c1cc2c(cc1Br)OCO2)N1CCOCC1 (centres undefined) | > 100 µM | 
94 | COc1cc(-n2cc(-c3ccc(Cl)cc3)[nH]c2=O)cc(OC)c1OC | 74.5 µM | 19.8 µM
95 | COc1cccc(/C=C2\CCCCCC2=O)c1 | > 100 µM | 
96 | O=C(COc1ccccc1)NS(=O)(=O)c1ccccc1 | > 100 µM | 
97 | CC1OC(OCC2COC(O)(Oc3c(-c4ccc(O)c(O)c4)oc4cc(O)cc(O)c4c3=O)C(O)C2O)C(O)C(O)C1O (centres undefined) | > 100 µM | 
98 | COc1ccc(/C(C)=N/OC(=O)c2c(-c3ccccc3Cl)noc2C)cc1CN1CCOCC1 | 75.6 µM | 
